Measured values: PubChem BioAssay (NCI)
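Step 1: Grow cells in 96-well plates. Step 2: Expose to compound for 48 hours at 5 concentrations. Step 3: Interpolate endpoints linearly; if unreached, use highest concentration. GI50 marks 50% less growth.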 Not every entry of the source has a single result; some have several. The other results are left out here. The source may hold further records. For some of these results: The records of an entry are repeats (runs, samples, wells, individuals or studies). What stands in brackets tells the records apart. The letters are not those of the source and start again with each entry.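 The concentration for full growth arrest is given as TGI.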 For some of these results: A record mostly stands for its own series of concentrations, which the source does not state; a value can be the end of its range.

Tests used:
Assay in all cases: growth of human tumour cells (NCI), 48 h
HL-60(TB) leukemia = tested on: HL-60(TB) leukemia
T-47D breast = tested on: T-47D breast
COLO 205 colon = tested on: COLO 205 colon
LOX IMVI melanoma = tested on: LOX IMVI melanoma
CCRF-CEM leukemia = tested on: CCRF-CEM leukemia
HOP-92 NSCLC = tested on: HOP-92 NSCLC
UACC-257 melanoma = tested on: UACC-257 melanoma
UO-31 renal = tested on: UO-31 renal

With `NC1=NC(=O)N2CC12` (stereo not given) the TGI (HL-60(TB) leukemia) was > 100 µM [sample A] and 4.24 µM, 136 µM [sample B].
In the case of `CN(C)CC/C=C1\c2ccccc2Sc2ccc(Cl)cc21`, the TGI (T-47D breast) is reported as 41.2 µM [sample A] and 3.91 µM [sample B], the TGI (COLO 205 colon) is reported as 29.7 µM [sample A] and 2.95 µM [sample B] and the TGI (LOX IMVI melanoma) is reported as 31.8 µM [sample A] and 3.03 µM [sample B].
For `CC(=O)[O-].CC(=O)[O-].[Mn+2].c1ccc(/C(=N\Nc2ccccn2)c2ccccn2)cc1`, the TGI (COLO 205 colon) was 2.93 nM and 13.5 µM.
`CNC(=O)c1ccc(Nc2ncc(C(F)(F)F)c(NCc3nccnc3N(C)S(C)(=O)=O)n2)cc1` was tested, and the TGI (CCRF-CEM leukemia) was > 10 µM [sample A, 1 test] and 9.73 µM [sample B, 1 test] and > 100 µM [sample C, mean of 2 tests] and the GI50 (HOP-92 NSCLC) was 127 nM [sample A, 1 test] and 1.54 µM [sample B, mean of 2 tests] and 291 nM [sample C, mean of 2 tests].
`CCC1(O)CC(OC2CC(N(C)C)C(OC3CC(O)C(OC4OC(C)C(=O)C=C4N)C(C)O3)C(C)O2)c2c(O)c3c(c(O)c2C1C(=O)OC)C(=O)c1cccc(O)c1C3=O` (stereo not given) was tested, and the TGI (UACC-257 melanoma) was 557 nM and 24.1 nM, the TGI (UO-31 renal) was 293 nM and 27.6 nM and the TGI (T-47D breast) was 141 nM and 2.73 µM.
